Measurements as given in PubChem BioAssay AID1347165 (National Center for Advancing Translational Sciences (NCATS), 2019).
The whole screen tested about 220,000 compounds, of which about 5,700 (2.6%) were called active. The shares of active, inactive and inconclusive entries below differ from those in the screen. Calls follow the shape of the dose curve; as a rule, active = well fitted inhibition curve with a large enough effect; inconclusive = small, poorly fitted or top-dose-only effect; inactive = no such curve, though single readings can be large or run the other way. Potencies beside an inconclusive call are fits to weak or partial responses and may not hold up.

What follows are molecules tested against Lysine-specific demethylase 5B (Homo sapiens) (UniProt Q9UGL1) (assay: Primary screen for KDM5B Histone Demethylases FDH-coupled qHTS). Conditions: FDH-coupled NADH fluorescence (FDH is formaldehyde dehydrogenase); activity change, negative = inhibition: at 57.7 µM (top of the series) unless noted.
How it was run: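 qHTS format, multiple compound concentrations. Buffer 50 mM HEPES pH 7.5/0.01% Tween-20; 200 nM KDM5BΔAP final; 10 min compound preincubation; substrate-mix levels 12.5 µM peptide, 25 µM α-KG, 0.25 mM NAD⁺; 30 min RT; ΔRFU.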
Also: nearly all actives have a fitted effect of over 70% in size.
For activity change, negative = inhibition in this document: 0% is about no effect.
Potency is read from the fitted curve at half-maximal effect; tags tell the direction and shape of the fitted curve.

Sequence of UniProt Q9UGL1 (Q9UGL1 whole entry, looked up): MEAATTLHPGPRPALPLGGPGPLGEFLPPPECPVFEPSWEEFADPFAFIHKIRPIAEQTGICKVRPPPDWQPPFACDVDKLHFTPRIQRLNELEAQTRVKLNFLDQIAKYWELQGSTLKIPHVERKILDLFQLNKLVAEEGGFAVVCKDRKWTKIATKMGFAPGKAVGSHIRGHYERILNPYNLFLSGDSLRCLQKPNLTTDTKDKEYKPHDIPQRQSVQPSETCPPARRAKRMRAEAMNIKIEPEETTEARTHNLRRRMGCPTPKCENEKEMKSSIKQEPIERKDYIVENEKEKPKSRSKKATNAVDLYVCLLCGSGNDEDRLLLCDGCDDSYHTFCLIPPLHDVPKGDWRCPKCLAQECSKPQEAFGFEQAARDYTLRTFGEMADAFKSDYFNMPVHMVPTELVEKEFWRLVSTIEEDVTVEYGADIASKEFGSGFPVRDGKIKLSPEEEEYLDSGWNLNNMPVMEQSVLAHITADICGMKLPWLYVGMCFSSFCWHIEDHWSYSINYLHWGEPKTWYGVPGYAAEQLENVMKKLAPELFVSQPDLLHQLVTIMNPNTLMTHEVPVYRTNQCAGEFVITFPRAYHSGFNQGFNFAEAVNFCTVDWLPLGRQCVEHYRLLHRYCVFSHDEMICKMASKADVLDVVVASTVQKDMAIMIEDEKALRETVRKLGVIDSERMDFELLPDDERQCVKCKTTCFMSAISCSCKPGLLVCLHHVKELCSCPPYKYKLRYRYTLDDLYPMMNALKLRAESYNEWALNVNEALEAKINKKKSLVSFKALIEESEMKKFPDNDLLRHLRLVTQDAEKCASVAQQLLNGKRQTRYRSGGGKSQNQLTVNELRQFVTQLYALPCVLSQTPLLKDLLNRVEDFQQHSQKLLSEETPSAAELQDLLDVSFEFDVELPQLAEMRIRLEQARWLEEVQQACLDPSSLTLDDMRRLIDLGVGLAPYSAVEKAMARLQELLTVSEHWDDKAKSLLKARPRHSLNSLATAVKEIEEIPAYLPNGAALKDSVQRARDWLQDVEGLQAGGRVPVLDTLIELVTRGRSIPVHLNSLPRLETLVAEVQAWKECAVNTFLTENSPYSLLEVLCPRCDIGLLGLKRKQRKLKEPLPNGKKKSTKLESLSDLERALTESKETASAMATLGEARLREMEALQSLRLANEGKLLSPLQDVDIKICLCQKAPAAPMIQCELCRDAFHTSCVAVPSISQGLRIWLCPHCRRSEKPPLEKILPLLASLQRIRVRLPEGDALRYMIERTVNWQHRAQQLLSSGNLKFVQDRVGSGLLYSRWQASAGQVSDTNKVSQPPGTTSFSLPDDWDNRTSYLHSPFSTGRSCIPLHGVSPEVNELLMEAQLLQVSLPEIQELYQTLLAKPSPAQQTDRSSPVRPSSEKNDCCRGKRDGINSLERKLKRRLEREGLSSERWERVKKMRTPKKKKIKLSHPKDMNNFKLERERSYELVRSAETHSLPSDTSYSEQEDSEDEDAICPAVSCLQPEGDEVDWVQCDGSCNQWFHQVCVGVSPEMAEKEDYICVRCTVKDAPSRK

SMILES	activity change, negative = inhibition	Potency
NC(=O)CN1C(=O)CO[C@H]2CN(Cc3ccc(Cl)cc3)C[C@H]21	inactive: -21.3% [at 86.2 µM]	
COc1cccc(C(=O)Nc2nc3ccc(S(=O)(=O)N4CCCC4)cc3s2)c1		inconclusive: 15.8 µM [inhibitor, partial curve, poor fit]
O=C(Nc1ccc(Br)cc1)c1cc(-c2cccs2)nc2ccccc12		inconclusive: 31.6 µM [inhibitor, partial curve, poor fit]
S=C(NCCc1c[nH]c2ccccc12)Nc1cccc(Cl)c1	inactive: -11.1%	
O=C(Nc1cccnc1)c1ccc2c(c1)OCCN(Cc1ncccn1)C2	inactive: 7.08% [at 86.2 µM]	
Cc1nc(CC2CCN(c3nccc(-c4cccnc4)n3)CC2)no1		active: 22.4 µM
CCC(C)NC(=O)[C@H]1N2C(=O)c3c(ccc(OC)c3OC)C2SC1(C)C (stereo partly drawn)		inconclusive: 20 µM [inhibitor, partial curve, poor fit]
O=C(Nc1ccccc1F)c1cc(-c2cccs2)nc2ccccc12		inconclusive: 28.2 µM [inhibitor, partial curve, poor fit]
Cc1ccc2oc(C(=O)N(Cc3ccc(N(C)C)cc3)CC3CCCO3)c(C)c2c1 (stereo not drawn)		inconclusive: 4.47 µM [inhibitor, partial curve, poor fit]
CC(c1ccc(F)cc1)N(C)C(=O)c1ccc(S(=O)(=O)N(C)C)cc1 (stereo not drawn)	inactive: 15.8%	
Cc1ccc(-n2nc(-c3c(C)nc4scc(CC(=O)N5CCCC5)n4c3=O)cc2C)cc1		inconclusive: 28.2 µM [inhibitor, partial curve, poor fit]
Cc1ccccc1NC(=O)c1cn(-c2ccccc2)nc1-c1ccccc1		inconclusive: 25.1 µM [inhibitor, single point]
CCCn1c2ccccc2c2cnn(CC(=O)NCCCN3CCCCC3)c(=O)c21		inconclusive: 22.4 µM [inhibitor, partial curve, poor fit]
N#C/C(=C(\O)CCCl)c1ccccn1		inconclusive: 17.8 µM [inhibitor, partial curve, poor fit]
O=C(NCCc1ccccc1)c1ccc2nc(N3CCCCC3)sc2c1	inactive: 7.38%	
CCOc1cc(C2C(C(=O)OC)=C(C)NC3=C2C(=O)c2ccccc23)ccc1OC (stereo not drawn)		inconclusive: 12.6 µM [inhibitor, partial curve, poor fit]
Cc1nn(-c2ccc(C(C)(C)C)cc2)c(C)c1[C@@H]1C=C[C@@H](NC(=O)c2ccc(N(C)C)cc2)C1		inconclusive: 39.8 µM [inhibitor, single point]
Cc1ccccc1-c1noc(C(C)NC(=O)c2ccccc2F)n1 (stereo not drawn)	inactive: -1.26%	
COC(=O)c1ccc(COC(=O)Cc2coc3cc(C)ccc23)cc1	inactive: 4.42%	
C#CCCCCCCCCC(=O)N1CCOCC1	inactive: 25.8%	
O=C(Nc1c(C(=O)N2CCN(c3ccccc3F)CC2)oc2ccccc12)c1ccco1		inconclusive: 35.5 µM [inhibitor, single point]
CCOC(=O)c1nn(Cc2ccc(OC)cc2)c2c1CN(C(=O)c1ccc3nc[nH]c3c1)CC2		active: 31.6 µM
COc1ccc2oc(C(=O)OC(C)C#N)c(C)c2c1 (stereo not drawn)		inconclusive: 28.2 µM [inhibitor, partial curve, poor fit]

SMILES	activity change, negative = inhibition	Potency
CCN1C(=O)CCN(C(=O)c2cccs2)CC12CCOCC2	inactive: -11.5%	
Cc1ccc(-c2cc(C(=O)NCc3ccco3)c3ccccc3n2)cc1C		inconclusive: 11.2 µM [inhibitor, partial curve, poor fit]
O=C(Cn1c(=O)n(Cc2ccco2)c(=O)c2oc3ccccc3c21)Nc1ccc(F)c(Cl)c1		inconclusive: 31.6 µM [inhibitor, single point]
CN1CCN(c2nc(-c3cn(CCC#N)c4ccccc34)cs2)CC1		inconclusive: 35.5 µM [inhibitor, single point]
CCCOC(=O)c1ccc(Oc2coc3cc(O)ccc3c2=O)cc1		inconclusive: 35.5 µM [inhibitor, partial curve, poor fit]
CCCNC(=S)Nc1cccc(Cl)c1	inactive: -5.24%	
CCOc1ccc(-c2ccnc(N3CCOC(CN)C3)n2)cc1C(=O)O (stereo not drawn)		active: 28.2 µM
CCc1nnc2c(N3CCN(c4cccc(C(F)(F)F)c4)CC3)nc3ccccc3n12		inconclusive: 2 µM [inhibitor, full curve, poor fit]
O=C(Nc1cnc(-c2cccc(Cl)c2)nc1)c1ccc(F)cc1Cl	inactive: -6.86%	
Cc1ccc(S(=O)(=O)N(C)C2CCOc3ccccc32)cc1 (stereo not drawn)	inactive: -21.6% [at 86.2 µM]	
O=C(NCCc1cccc(F)c1)C1CC(=O)N(c2n[nH]c3cccc(F)c23)C1 (stereo not drawn)		active: 22.4 µM
CSc1nc(-c2ccccc2Cl)nc2c1Cc1c(CO)cnc(C)c1O2		inconclusive: 31.6 µM [inhibitor, single point]
N=C(N)SCc1ccc(Br)cc1	inactive: 16.9%	
CN1[C@@H](CCC(=O)N2CCOCC2)CNC(=O)[C@@H]2[C@H]1CCN2Cc1ccccc1		inconclusive: 22.4 µM [inhibitor, partial curve, poor fit]
COC[C@@H]1[C@H](C(=O)N2CCc3ccccc32)CCC(=O)N1C		inconclusive: 17.8 µM [inhibitor, single point]
Cc1ccccc1NC(=O)c1nc(-c2ccccc2)oc1C	inactive: -3.87%	
COc1ccc(CCNC(=O)C2CCCN(S(C)(=O)=O)C2)cc1 (stereo not drawn)		inconclusive: 39.8 µM [inhibitor, single point]
CCn1nccc1C(=O)N1CCc2ncnc(N3CCOCC3)c2CC1	inactive: -12.1%	
COc1ccc(C2c3c(n[nH]c3C)Nc3[nH]c(=O)[nH]c(=O)c32)c(OC)c1 (stereo not drawn)		inconclusive: 35.5 µM [inhibitor, partial curve, poor fit]
COc1cc(C(=O)N2CCN(C3CCCCC3)CC2)cc(OC)c1OC		inconclusive: 25.1 µM [inhibitor, partial curve, poor fit]
N#CC1=C2SCN(C3CCCCC3)CN2C(=O)CC1c1ccc(Br)cc1 (stereo not drawn)		inconclusive: 1.78 µM [inhibitor, full curve, poor fit]
CCOc1cc(C#N)c(NC(=O)c2ccc(OC)c(S(=O)(=O)N3CCN(c4ccccc4)CC3)c2)cc1OCC		inconclusive: 7.08 µM [inhibitor, partial curve, poor fit]
O=C(NCCc1cccc2cccnc12)Nc1cccc(NC(=O)Nc2ccccc2)c1	inactive: 1.21%	

SMILES	activity change, negative = inhibition	Potency
COc1ccc(-c2cc(C(=O)NCC(C)C)c3c(C)nn(-c4ccccc4)c3n2)cc1		inconclusive: 3.98 µM [inhibitor, full curve, poor fit]
Cc1oc2cc3oc(=O)c(CC(=O)N4CCCCC4)c(C)c3cc2c1C		inconclusive: 31.6 µM [inhibitor, single point]
O=C1CCN(Cc2cccc(OC(F)(F)F)c2)CCCCCCN1	inactive: 0.328%	
COc1ccc(/C=C2/C(=O)N(C)C(=S)N2C)cc1	inactive: -28.7%	
O=C1NCCCCCCN(C(=O)c2ccco2)[C@H]2C[C@H](c3nc(Cc4ccccc4)no3)C[C@@H]12	inactive: 0.0543%	
CCOC(=O)c1ccc(NC(=O)c2cn(-c3ccccc3)nc2-c2ccc(C)cc2)cc1	inactive: -18.1%	
O=[S+]([O-])(c1ccc(Br)cc1)c1nnn2c1nc(NC1CCCC1)c1ccccc12	inactive: 12.1% [at 115 µM]	
O=C(Nc1ccc2c(c1)OCO2)c1cnn2c(C(F)(F)F)cc(-c3ccc(F)cc3)nc12	inactive: 1.53%	
Clc1cccc(Nc2nc(NC3CCCC3)nc3c2cnn3-c2ccccc2)c1		inconclusive: 10 µM [inhibitor, partial curve, poor fit]
COc1ccc(C(=O)N2CCN(Cc3ccc(=O)n(C)c3)CC2)cc1F	inactive: -8.68%	
COc1cc(CN(C)C(=O)Cc2nc(-c3cccs3)oc2C)ccc1OC(F)F		inconclusive: 20 µM [inhibitor, partial curve, poor fit]
COc1ccccc1C(NC(C)=O)c1c(O)ccc2ccc(O)cc12 (stereo not drawn)		inconclusive: 35.5 µM [inhibitor, single point]
CCNC(=O)N(C)[C@H]1C[C@H]2c3[nH]c4c(-c5cccc(C)c5)cccc4c3CCN2C(=O)[C@H]1[C@H](C)O		inconclusive: 5.62 µM [inhibitor, single point]
Cc1cc(C)cc(NC(=O)CSc2nc3c([nH]c4ccccc43)c(=O)n2-c2ccc(F)cc2)c1		inconclusive: 8.91 µM [inhibitor, partial curve, poor fit]
COC(=O)c1sccc1NC(=O)c1ccc(C)cc1		inconclusive: 25.1 µM [inhibitor, partial curve, poor fit]
O=S(=O)(c1cccs1)N(Cc1ccco1)Cc1cccs1		inconclusive: 35.5 µM [inhibitor, single point]
N#Cc1nc(-c2ccccc2F)oc1NCc1ccc(Cl)cc1		inconclusive: 1.78 µM [inhibitor, partial curve, poor fit]
CCOC(=O)COc1ccc2c(C)cc(=O)oc2c1C		inconclusive: 25.1 µM [inhibitor, partial curve, poor fit]
CCOC(=O)c1c(CC(C)C)csc1/N=C/C1=C(O)CCCC1=O		inconclusive: 28.2 µM [inhibitor, partial curve, poor fit]
Clc1ccc(CN2CCCC2)cc1		inconclusive: 31.6 µM [inhibitor, single point]
Cc1ccc(C)c(CN2C(=O)c3ccccc3S(=O)(=O)c3ccc(C(=O)Nc4cc(F)ccc4F)cc32)c1		inconclusive: 8.91 µM [inhibitor, partial curve, poor fit]
Cc1onc(-c2ccccc2)c1C(=O)N1CCOCC(O)(CN2CCCC2)C1 (stereo not drawn)		inconclusive: 17.8 µM [inhibitor, single point]
